# The campaign covered roughly 110,000 compounds. About 40 (0.04%) were called active. The inconclusive results got no clear call from the source; some entries with a clear call stand among them for comparison. Calls come from the whole dose curve; as a rule, active = well fitted curve in the direction sought with a large enough effect in the signal ratio (not every such curve was filed as active); inconclusive = small, poorly fitted or top-dose-only effect, or a change in a side signal; inactive = flat fitted curve, though single readings scatter; the % refers to the signal ratio. A potency beside an inconclusive call is a rough fit, not a confirmed value.
# Experiment: IkB Signaling;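 for IkBa stabilization activation: 0% = basal untreated cells and 100% = reference inhibitor full response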
# Settings: ABC-DLBCL IkBa-CBG/CBR dual luciferase ratio (green luciferase fused to IkBa over red control in OCI-Ly3 lymphoma cells), 4 h; IkBa stabilization activation: at 57.1 µM (top of the series), scaled: untreated 0%, proteasome inhibitor 100% unless noted
# Method in brief: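 In this assay, an IκBα–CBG68 fusion accumulates when IKK-driven degradation is blocked; native CBR normalizes for cell number. OCI-Ly3 cells were treated 4 h with compound and doxycycline, then green and red light read after Chroma-Glo addition.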
# Potency is the fitted concentration of half-maximal effect.
Compound,IkBa stabilization activation,Potency
COc1ccc(-c2cc3n(n2)CCc2nc4ccccc4n2-3)cc1,inconclusive: 10.3% [signal inhibitor],
O=C(Nc1cccc(C(=O)N2CCN(c3cccc(Cl)c3)CC2)c1)c1nsc2ccccc12,inactive: 1.19%,
CCc1ccccc1NC(=O)c1ccc2c(SCC(=O)O)c3c(nc2c1)CCC3,inactive: 8.09%,
Cc1ccccc1Cn1c2ccccc2c2cnn(CC(=O)NCC(C)c3ccccc3)c(=O)c21 (stereo not given),inconclusive: -0.441% [signal inhibitor],
O=C(NCCOC(=O)c1ccncc1)c1ccccc1,inactive: -0.439%,
CSc1ccc(CCNC(=O)C(C)n2nc(C)c3sc4ccccc4c3c2=O)cc1 (stereo not given),inactive: -3.29%,
CCOC(=O)C1CCN(C(=O)c2ccc(NC(=O)c3nsc4ccccc34)cc2)CC1,inconclusive: 17.8% [signal inhibitor],
COc1ccc(CNC(=O)C2CCCN(S(=O)(=O)c3ccc4c(c3)CCCN4C(C)=O)C2)cc1 (stereo not given),inconclusive: 0.449% [signal inhibitor],
COc1ccccc1N1CCN(S(=O)(=O)c2ccc(F)c(C(=O)Nc3ccc(C)c(F)c3)c2)CC1,inconclusive: 1.2% [signal inhibitor],
CCOC(=O)CCc1c(C)nc2c(c(C)nn2C(C)(C)C)c1C,inactive: 3.77%,
COc1ccc(CCNC(=O)c2cc(Sc3cccc(Cl)c3)nc3ccccc23)cc1OC,inconclusive: 0.111% [signal inhibitor],
CC(=O)c1cnc(N2CCCCC2)nc1C,inactive: 1.9%,
CCc1ccc2[nH]c(=O)c(CN(CCCN3CCOCC3)C(=O)Nc3ccc(F)cc3)cc2c1,inconclusive: 6.74% [signal inhibitor],
COc1ccc(CCNc2oc(-c3ccc(OC)c(OC)c3)nc2C#N)cc1,inconclusive: 4.93% [signal inhibitor],
O=C(Nc1cc(Cl)cc(Cl)c1)c1ccc(F)c(S(=O)(=O)N2CCCCCC2)c1,inconclusive: 1.63% [signal inhibitor],
Cc1ccc(C(C)C)c(OCCn2cc(C(=O)c3ccco3)c3ccccc32)c1,inconclusive: 12.7% [signal inhibitor],
COc1ccccc1N1CCN(C(=O)c2oc3ccccc3c2NC(=O)C(C)Oc2ccccc2)CC1 (stereo not given),inconclusive: 10.4% [signal inhibitor],
CCOc1ccc(CNC(=O)c2cc3c(=O)n(C)c4ccccc4c3s2)cc1,inactive: 0.833%,

Compound,IkBa stabilization activation,Potency
Cc1ccc(C(=O)CC2(O)C(=O)N(CCc3ccccc3)c3ccc(Br)cc32)o1 (stereo not given),inconclusive: 1.61% [signal inhibitor],
O=C(c1ccc2c(c1)OCCO2)N(Cc1cccnc1)c1nc2ccc(F)cc2s1,inconclusive: 1.22% [signal inhibitor],
CC(C)Sc1nc2c(cnn2-c2ccccc2)c(=O)[nH]1,,"inconclusive: 3.98 µM [rising, partial curve]"
CCN(CC)CCCNC(=O)c1cc(-c2ccc(OC)c(OC)c2)on1,inconclusive: 6.62% [signal inhibitor],
Cc1ccc(NC(=O)C2CCCN2S(=O)(=O)c2cccc3cccnc23)cc1 (stereo not given),inactive: -3.05%,
O=C(Cn1cc(SCc2cccc(Cl)c2)c2ccccc21)N1CCOCC1,inconclusive: 11.1% [signal inhibitor],
CC(C)(C)c1ccc(-c2noc(CCC(N)=O)n2)cc1,inactive: 14%,
Cn1nc(CC(=O)Nc2ccc3c(c2)OCCO3)c2ccccc2c1=O,inconclusive: 2.46% [signal inhibitor],
Cc1cccc(NC(=O)CSc2nc3ccc(NC(=O)c4cccs4)cc3s2)c1,inconclusive: 0.286% [signal inhibitor],
O=C(Nc1ccc2c(c1)CCC2)c1cnccn1,inactive: 0.354%,
CCc1ccc(Nc2cc(C)nc3nc(Cc4ccc(Cl)cc4)nn23)cc1,inconclusive: 1.1% [signal inhibitor],
CCOC(=O)c1ccc(CSc2nnc3cc(C)c4ccccc4n23)cc1,inconclusive: 2.13% [signal inhibitor],
COc1ccccc1NC(=O)CN(c1ccc(C(C)C)cc1)S(=O)(=O)c1c(C)noc1C,inconclusive: 3.44% [signal inhibitor],
CCCn1c(Nc2nc3ccccc3n2C)nc2ccccc21,,"inconclusive: 20 µM [rising, single point]"
N#Cc1ccc(C(=O)N2CCN(c3nc4ccc(F)cc4s3)CC2)cc1,inconclusive: 15.9% [signal inhibitor],
COc1cc2c(cc1OC)C(c1ccc(Cl)cc1)N(c1ccc(C)c(F)c1)C(=O)C2 (stereo not given),inconclusive: 1.52% [signal inhibitor],
CN1C(C(=O)Nc2ccc(OC(F)(F)F)cc2)=CC(c2ccc3c(c2)OCO3)=NS1(=O)=O,inconclusive: 1.1% [signal inhibitor],
